Experimental data from the supplement of paper PMC3724861.
The list shows a part of the results.

tested on: T1, Caupolican (Caup) homeodomain DNA-binding domain; test: PBM E-score (8-mer, recovered from the published 9-mer minima) (E-score (dimensionless, -0.5 to 0.5)); Drosophila protein; higher = stronger relative binding preference, active = 0.31 or more
T1 sequence: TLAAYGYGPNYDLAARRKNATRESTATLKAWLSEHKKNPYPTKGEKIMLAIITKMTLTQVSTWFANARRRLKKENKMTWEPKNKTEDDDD
How it was run: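 Caup's homeodomain DNA-binding domain (residues 214-303) was made by in vitro transcription and translation and applied at 100 nM to custom-designed protein binding microarrays. Each value is an enrichment score that gives relative binding preference for a short DNA word, with higher meaning stronger. The 8-mer values were recovered from published 9-mer scores, each of which was the minimum of its two constituent 8-mer scores. A cutoff of 0.31 marks candidate sites.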

Sequence | PBM E-score
GCGAGAAC | inactive: -0.0702
TACGGCCA | inactive: -0.211
CCCGAAGA | inactive: -0.133
CCAAACGA | inactive: -0.0262
ATGGGCAG | inactive: -0.132
AAAGTCGC | inactive: -0.109
AATCAGAG | inactive: 0.0745
CGATCGGC | inactive: -0.135
GGACTAAA | inactive: -0.0546
CGTACTGA | inactive: 0.0782
ACGACGTC | inactive: -0.0337
CAAGAGAA | inactive: 0.139
CGCCCCTA | inactive: -0.159
AACAGTAG | inactive: 0.0772
CGGACTGA | inactive: -0.0762
GTAACACA | inactive: 0.307
AGCAAGTC | inactive: -0.00143
ATAACTGC | inactive: 0.0232
ATTTTCTG | inactive: 0.00378
AAGCCCCA | inactive: -0.232
ACGGAGCT | inactive: -0.224
ATCTATCG | inactive: 0.0935
AAGTCCGG | inactive: -0.131
GTCATTGA | inactive: 0.185
AAATCGGA | inactive: 0.0449

Sequence | PBM E-score
GATTCTAA | inactive: 0.0682
AAAGGCTA | inactive: -0.0366
ACCTATTC | inactive: 0.00769
ACCGCACA | inactive: -0.00685
ACGTCGGC | inactive: -0.0877
CCTCCAAA | inactive: -0.127
GCGTCACA | inactive: 0.0119
TAAACTGA | inactive: 0.0935
CACACCGC | inactive: -0.0293
AACATAGG | inactive: 0.241
AGTAAGAG | inactive: -0.0386
ACAAGGGA | inactive: 0.209
GCTGCGCA | inactive: -0.222
AGTTGTAG | inactive: 0.232
ACGCTCGA | inactive: -0.0857
CCGTATTC | inactive: -0.00905
AGCGGCCT | inactive: -0.293
AGCTGACA | inactive: 0.108
CCTTTGCA | inactive: -0.0006
GCTAAGTA | inactive: 0.091
GAGAAGCA | inactive: -0.0117
CTAATAAA | inactive: 0.134
AGGCGAAC | inactive: -0.03
GACGCCCA | inactive: -0.142
AACTAAGG | inactive: -0.015

Sequence | PBM E-score
AAGGCGTG | inactive: -0.0377
CGACCCTC | inactive: -0.203
GGCTTTGA | inactive: -0.13
ACATCCCA | inactive: 0.16
CAATAGAC | inactive: 0.139
GAGAGGGA | inactive: -0.175
ATCCCTAC | inactive: -0.0132
AGCTAACA | inactive: 0.146
CCGTTAGG | inactive: -0.194
AGGCCAAT | inactive: -0.0746
TGGTCAAA | inactive: 0.0685
CCAGCCCC | inactive: -0.234
AATTATGG | inactive: 0.0916
GTCGACAC | inactive: 0.175
CATCGTAC | inactive: 0.176
TACGTAAA | inactive: 0.169
CACCTTAA | inactive: -0.0428
GTGTTGGA | inactive: 0.187
CGGGTCAA | inactive: -0.0606
TGTGAACA | active: 0.31
ATGAATTG | inactive: 0.0886
GCACCCCA | inactive: -0.19
AATCAGGG | inactive: -0.0973
ACGGGACG | inactive: -0.211
GTCAGCGA | inactive: -0.0418

Sequence | PBM E-score
CCCACCAG | inactive: -0.123
ATGAGTCA | inactive: 0.0791
ATATTCAG | inactive: 0.129
AAAATACT | inactive: 0.04
AAATATGT | active: 0.335
CAAGTCCG | inactive: 0.0488
ACAATCGC | inactive: 0.0572
ACCACGGT | inactive: 0.0353
CCCGTAGA | inactive: -0.105
ACATGCCC | inactive: 0.291
AGGTCTAA | inactive: -0.0834
TTTCCAAA | inactive: 0.103
AGATTACG | inactive: 0.103
AGACCTTA | ≥ -0.00031
TATAATAA | inactive: 0.205
CCAATGGG | inactive: -0.135
ACTCATGA | inactive: 0.119
ACCTCACC | inactive: -0.0864
TATATAAA | inactive: 0.192
CATTCTCA | inactive: 0.0391
GTTGATGA | inactive: 0.0578
CATACGCA | inactive: 0.0306
AGGACGAC | inactive: 0.056
AATTTATG | inactive: 0.147
CACGGCCG | inactive: -0.107

Sequence | PBM E-score
GATTTTGA | inactive: 0.142
CCATTACC | inactive: -0.0281
AGATCAGC | inactive: -0.0286
ATCTCTTC | inactive: 0.0107
ACTCGCGC | inactive: -0.157
CGAAAATA | inactive: 0.0964
GAGAGTTA | inactive: 0.011
TGGGTCAA | inactive: -0.0662
CGACGACG | inactive: -0.119
CATCCGCA | inactive: -0.0118
CTTTATTA | inactive: 0.109
AAACTTAT | inactive: 0.115
AGGCAAGA | ≥ 0.00925
ATGAAGCG | inactive: -0.0578
ACCGGTTC | inactive: -0.103
CATCTAGC | inactive: 0.0524
CACGTTCC | inactive: 0.0171
AGGTCGCC | inactive: -0.202
AGAGTAGA | inactive: -0.0248
CAAACACA | inactive: 0.265
CAAGCTAG | inactive: -0.0491
CGCGACGA | inactive: -0.0716
CCCGGATC | inactive: -0.129
TGCACAAA | inactive: 0.132
AGCCATAC | inactive: -0.0319

Sequence | PBM E-score
AAAGATCC | inactive: -0.0594
AGGTTCCG | inactive: -0.0912
CTCTTTTA | inactive: 0.00936
CAGGGTCG | inactive: -0.262
AAGATCGT | inactive: 0.00731
CGGAATAA | inactive: -0.0285
ATGGTAAA | inactive: 0.125
CTTTTTAC | inactive: 0.0875
AGTTCTTG | inactive: 0.0824
CACTGCAC | inactive: -0.0121
GTTCTTCA | inactive: -0.0295
AAATCGTA | inactive: 0.105
GAATGGTA | ≥ 0.18
ATGGCAAC | inactive: 0.0784
GTGTGTGA | inactive: 0.0881
CACACAGG | inactive: -0.0176
CACCCACG | inactive: -0.151
ATATGGCA | inactive: 0.115
GCTGCCAA | inactive: -0.0937
GATGTTGC | inactive: 0.234
ACAGACTC | inactive: 0.0867
CCGTTTAA | inactive: -0.0446
AGTGTCTC | inactive: -0.021
AATCCTCG | inactive: 0.00431
ACCAGTTA | inactive: 0.13

Sequence | PBM E-score
CGCTGTCA | inactive: 0.0371
CAGCACAC | inactive: -0.00172
ACAACAAG | active: 0.362
GTGTATCA | inactive: 0.276
GGACCCTA | inactive: -0.0629
GCTGCGGA | inactive: -0.178
CGAGTAAC | inactive: 0.141
CCCCAACG | inactive: -0.129
TTCGACAA | inactive: 0.279
ACTTCCCC | inactive: -0.172
CTAGCACA | inactive: -0.0509
ACGTGCAT | ≥ 0.126
CTTAGGGA | inactive: -0.0959
ACTCGTCA | inactive: 0.0815
ACTCCATC | inactive: -0.034
AGTGTCAG | inactive: 0.0798
AAGTTAGG | inactive: 0.0319
TACTGGAA | inactive: 0.0439
GACTCTAC | inactive: -0.0496
ATGGATGC | inactive: 0.0819
CAGTACTG | inactive: -0.0376
ATTAACCG | inactive: -0.0355
CAATTTCA | inactive: 0.0522
AAAATACG | inactive: 0.0692
CGGTCTAG | inactive: -0.115

Sequence | PBM E-score
GGAGGGCA | inactive: -0.116
CAATCGTA | inactive: 0.114
GTCCTAAC | inactive: 0.0667
CACAGCGC | inactive: -0.0681
ATCCAAAG | inactive: 0.12
CGCCGCCG | inactive: -0.225
AAGGGGGG | inactive: -0.4
ACTAGGGC | inactive: -0.0894
CGCCATGC | inactive: -0.15
ATATAATA | ≥ 0.259
CACGCGTC | inactive: 0.0565
GGGTAACA | inactive: 0.216
AGAGGTCA | inactive: -0.0303
CGCCGTGA | inactive: -0.0603
CACGGGGC | inactive: -0.172
GGACCTAA | inactive: -0.057
GGTGTGGA | inactive: -0.0814
CATTCACG | inactive: -0.0298
CGCCTTAA | inactive: -0.0449
CGTGGAAG | inactive: -0.0419
GGGGGACA | inactive: -0.134
CCCTTAAC | inactive: -0.127
AGACCCTC | inactive: -0.189
ATCACTTC | inactive: 0.111
CACGGGCA | inactive: -0.0674

Sequence | PBM E-score
ATTCCCCA | inactive: -0.0404
GGTTATCA | inactive: 0.0986
AACTTTGT | inactive: 0.17
CTTCTGGC | inactive: -0.136
CAGTAACC | inactive: -0.0276
ACGACGGG | inactive: -0.122
CTCATGCC | inactive: -0.129
AGCGAGAC | inactive: -0.0966
CTTTTGTA | inactive: 0.217
CCAGGCAA | inactive: -0.0864
CTGCACCA | inactive: -0.19
CCTAGTAC | inactive: 0.184
TGCAACCA | inactive: 0.0472
GTGGTGAA | inactive: -0.0583
CCTGGACA | inactive: 0.0418
CATTGCGA | inactive: 0.0289
AGTTCCTG | inactive: -0.0927
CGTTCAAA | inactive: -0.0536
CCTCTTAC | inactive: -0.0603
AATCTGAT | ≥ 0.18
TGGCTCAA | inactive: -0.14
CAGCGTCA | inactive: -0.161
